# Test results published in article PMC6919601, “Identification of Plasmodium dipeptidyl aminopeptidase allosteric inhibitors by high throughput screening” (PLoS ONE, 2019).
# In all, about 110,000 compounds went through this assay and about 230 (0.21%) showed an effect of 50% or more. Some of the results follow.
# Molecular target: DPAP1 (Plasmodium falciparum, UniProt Q8IIJ9)
# Test: primary screen, percent inhibition; read by cleavage of a fluorogenic dipeptide substrate; higher = more effect of the substance
# Set-up: species or system P. falciparum D10 trophozoite lysates; single well
# 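Also: 30 min substrate incubation versus DMSO and 10 µM JCP410 controls.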
# DPAP1, sequence (Q8IIJ9 whole entry, looked up): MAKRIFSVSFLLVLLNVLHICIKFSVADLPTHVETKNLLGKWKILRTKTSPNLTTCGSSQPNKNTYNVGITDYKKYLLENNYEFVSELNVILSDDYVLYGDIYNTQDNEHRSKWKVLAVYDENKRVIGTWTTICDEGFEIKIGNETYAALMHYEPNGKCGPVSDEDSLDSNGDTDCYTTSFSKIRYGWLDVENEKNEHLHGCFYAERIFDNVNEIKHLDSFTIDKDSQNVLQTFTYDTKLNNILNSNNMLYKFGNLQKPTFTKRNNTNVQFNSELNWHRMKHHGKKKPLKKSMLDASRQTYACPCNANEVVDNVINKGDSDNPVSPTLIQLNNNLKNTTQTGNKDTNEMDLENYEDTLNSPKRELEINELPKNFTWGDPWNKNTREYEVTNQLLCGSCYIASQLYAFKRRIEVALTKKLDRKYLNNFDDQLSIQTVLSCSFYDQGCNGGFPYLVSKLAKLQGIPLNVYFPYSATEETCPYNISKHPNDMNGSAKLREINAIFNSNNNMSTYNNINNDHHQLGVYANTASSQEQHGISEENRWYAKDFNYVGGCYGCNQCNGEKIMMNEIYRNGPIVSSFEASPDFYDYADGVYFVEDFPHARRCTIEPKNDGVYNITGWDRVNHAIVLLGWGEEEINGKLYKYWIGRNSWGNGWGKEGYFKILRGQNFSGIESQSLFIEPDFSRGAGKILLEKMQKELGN
row,SMILES,% Inhibition @ 10 uM
1,CCC1CCCCN1CCCNC(=O)C1CCN(Cc2nc(-c3ccc(Cl)cc3)oc2C)CC1 (centres unmarked),2.37%
2,CCc1nc2sc3c(c2c2nncn12)CCCC3,-3.92%
3,CCOC(=O)c1c(C)[nH]c(C)c1S(=O)(=O)NC1CCC(C)CC1 (centres unmarked),0.533%
4,CC(C)=CCC/C(C)=C/CN1CCN(CCO)CC1,2.91%
5,CN1C(=O)NC(=O)/C(=C\c2ccc(-c3ccccc3F)o2)C1=O,-0.834%
6,CCOc1ccc(-c2nonc2NC(=O)c2cc3ccccc3oc2=O)cc1OCC,-6.98%
7,Cn1cnc2c1c(=O)n(Cc1ccccc1Cl)c(=O)n2C,-1.57%
8,COc1ccc(OC)c(-c2cc(C(=O)NCC(C)C)no2)c1,2.98%
9,Cc1cccc(-c2nc3n(n2)C(=O)CC(c2ccc(Cl)cc2)S3)c1 (centres unmarked),-4.62%
10,CCc1nnc2c(NCc3cc(OC)ccc3OC)nc3ccccc3n12,2.25%
11,Cc1ccc(C(C)C)c(OCC(O)CN2CCN(C)CC2)c1 (centres unmarked),4.42%
12,NS(=O)(=O)c1ccc(NC(=O)CNS(=O)(=O)c2ccc(Cl)cc2)cc1,2.43%
13,CC(NC(=O)C1CCCCC1C(=O)O)c1ccccc1 (centres unmarked),0.709%
14,N#Cc1ccc(Oc2cccc(C(=O)O)c2)cc1,-10.1%
15,CCc1ccc(N/C(=N\C(C)=O)Nc2nc(C)cc(C)n2)cc1,-6.65%
16,CC(C)Cn1cc(C(=O)NC(C)C)c2c3ccccc3n(C)c2c1=O,-10%
17,O=C(NC(Cc1ccccc1)Cc1ccccc1)c1ccccc1Br,-0.292%
18,CCCNC(=O)c1ccc(N2CCN(CCO)CC2)nc1,1.94%
19,NC1CCN(c2nc(-c3ccc(F)cc3)cs2)CC1,-6.56%
20,CCOC(=O)C1=C(C)N=c2s/c(=C\c3ccc(-c4cccc(C(=O)O)c4)o3)c(=O)n2C1c1ccccc1 (centres unmarked),6.09%
21,N#Cc1c(NC(=O)CSc2ccccc2)sc2c1CCCC2,-5.14%
22,COCCn1nnc2c(O)nc(C(=O)NCc3ccccc3Cl)nc21,-2.91%
23,COCCN1Cc2cccc(C(=O)NC3CCCC3)c2C1=O,-4.14%
24,CCOC(=O)N1CCN(c2nc3ccc(C(=O)c4ccccc4)cc3n3cnnc23)CC1,2.42%
25,Cc1ccc(OCC(=O)Nc2ccc3oc(-c4cccnc4)nc3c2)c(C)c1,-0.67%

row,SMILES,% Inhibition @ 10 uM
1,CCCCNC(=O)CN(C)S(=O)(=O)c1ccc(F)cc1,-3.87%
2,CC(=O)c1cccc(N2C(=O)C3C(C2=O)C3(c2ccccc2)c2ccccc2)c1 (centres unmarked),-0.251%
3,COc1cccc(C2C(C#N)=C(N)OC(C)=C2C(C)=O)c1OC (centres unmarked),3.32%
4,COc1cccc(C2C(C(=O)c3ccc(Cl)cc3)=C(O)C(=O)N2CCCn2ccnc2)c1 (centres unmarked),1.81%
5,COc1ccc(C(=O)CCC(=O)N2CCN(c3ccc(N4CCOCC4)nn3)CC2)cc1,-1.7%
6,Cc1ccc(NC(=O)COc2ccc(C)cc2)cc1,2.59%
7,CCSc1nc2c(c(=O)n1C1CCOC(C)(C)C1)C1(CCCCC1)Cc1ccccc1-2 (centres unmarked),2.81%
8,O/C(=C\c1nc2ccccc2nc1O)c1ccco1,1.8%
9,Cc1nn(C)c(C)c1S(=O)(=O)N1CCCC(C(=O)NC(C)c2ccccc2)C1 (centres unmarked),5.58%
10,CCC(C)NC(=O)C1CCCN(c2ncnc3onc(-c4ccc(F)cc4)c23)C1 (centres unmarked),-2.9%
11,Cc1ccc2c(=O)cc(C(=O)Nc3nc4ccc(C)cc4s3)oc2c1,0.248%
12,COc1cc2c(cc1OC)C(C(=O)NC1CCCC(C)C1C)C(c1cccs1)N(C)C2=O (centres unmarked),-2.12%
13,COc1ccc(C2=NS(=O)(=O)N(C)C(C(=O)NC(C)C)=C2)cc1,9.86%
14,CN(C)/C=N/c1ncnc2c1cnn2-c1ccc(C(F)(F)F)cn1,2.07%
15,COc1cc(OC)cc(C(=O)N2CCN(Cc3ccc(Cl)cc3)CC2)c1,-3.87%
16,CCN(CC)CCCNC(=O)c1sc2ccccc2c1Cl,-6.29%
17,O=C(CCc1ccccc1)Nc1ccncc1,-1.96%
18,CCOC(=O)c1c(C)[nH]c(C)c1S(=O)(=O)NCCCOC(C)C,-4.78%
19,Cc1cccc(Cn2c(Sc3nc4ccccc4[nH]3)nc3c2c(=O)[nH]c(=O)n3C)c1,-0.946%
20,O=C(NCCCN1CCN(C2CCCCC2)CC1)C1CCCN(S(=O)(=O)N2CCCCC2)C1 (centres unmarked),-5.34%
21,Clc1ccc(CN2CCN(c3ccccn3)CC2)cc1Cl,-7.33%
22,COc1ccc(-c2cc(C(=O)NCCO)c(C)o2)cc1OC,-0.403%
23,Cc1ccc(-n2nc3c(c2NC(=O)c2ccc(C(C)(C)C)cc2)CS(=O)(=O)C3)cc1,-5.82%
24,O=C(COc1ccc(Br)cc1)NCc1cccs1,-1.04%
25,CCc1cccc(C)c1NC(=O)C(CC(C)C)N1C(=O)c2ccccc2C1=O (centres unmarked),-7.5%
